83 molecules from ChEMBL document CHEMBL4888484, “Replenishing the malaria drug discovery pipeline: Screening and hit evaluation of the MMV Hit Generation Library 1 (HGL1) against asexual blood stage Plasmodium falciparum ,using a nano luciferase reporter read-out” (2022) can be followed below.

Each structure is given as a SMILES string. Hit rate of the full screen: of about 150,000 compounds, about 540 (0.36%) showed an effect of 50% or more. This is one part of the list.

The test system of the test is Plasmodium falciparum. Put plainly: Primary screen in NF54 nanoGlo assay, in single point, at 2uM, 72h; a lower Z score goes with more inhibition. The format is functional, Erythrocyte. The following applies: timepoint 72 hour.
Usually % Inhibition stands for the drop in the measured response relative to a control, in per cent. On to `CCOc1cc(-c2nnc(NC(=O)c3cc(C)on3)o2)cc(OCC)c1OCC`, for which the “% Inhibition” value was 3% and the Z score is given as -0.43.
The corresponding values for `Cc1ncc(C(=O)NC2(C(C)C)CC2)c(=O)[nH]1` are 2% and -0.26.
Turning to `O=C(c1cc(O)nc2ccccc12)N1CCC(c2nc3ccccc3o2)CC1`, the “% Inhibition” value is 3% and the Z score is -0.42.
The matching figures for `CCCn1cc(CN2CCN(CCOC)[C@@H]3CS(=O)(=O)C[C@@H]32)c(C)n1`: -5% and 0.99.
Take `COc1cccc(-c2nc3ccccn3c2CN2CCNCC2)c1`: the “% Inhibition” value amounted to 9% and the Z score is reported as -0.99.
For `CCOC(=O)c1c(CN(C)C)n(-c2ccc(OC)cc2)c2ccc(Oc3ncccc3C#N)cc12`, the “% Inhibition” value is listed as -42% and the Z score is on record as 4.94.
Take `Cc1c(CNC[C@@]2(C)CCN(C(=O)OC(C)(C)C)C2)cnn1C`: the “% Inhibition” value turned out to be 2% and the Z score was -0.26.
With `COC[C@H](NC(=O)NCC(F)F)c1ccc(Cl)cc1`, the “% Inhibition” value is on record as -9% and the Z score amounted to 1.22.
Regarding `CCc1cnc(C)nc1N1CCC(NCCOc2ccccc2F)CC1`, the “% Inhibition” value is given as -8% and the Z score was 0.74.
The matching figures for `O=C(Cc1cc(C2CC2)no1)N1CCCS(=O)(=O)C[C@H]1C1CC1`: 4% and -0.73.
The corresponding values for `COc1cc(-c2nccn2CC2(Cn3ccnc3C)CC2)cc(Cl)c1O` are -13% and 2.06.
The matching figures for `COc1ccc2c(c1)CCc1c(C(=O)NCCc3nc4ccccc4[nH]3)n[nH]c1-2`: 2% and -0.19.
In the case of `CC(C)[C@H](C)N(Cc1ccco1)C(=O)c1ccc(CCN2CCCC2)nc1`, the “% Inhibition” value is -5% and the Z score was 1.01.
The corresponding values for `O[C@H](COc1cccc2c1CCCC2)CN1CCOCC1` are -9% and 0.79.
The corresponding values for `CCn1cc(CN(C)c2ccnc(C(=O)NCc3ccoc3)c2)c(C)n1` are -1% and 0.08.
The matching figures for `CC(C(=O)NCC1CCCO1)N1CCCCC1Cn1cccn1` (stereo unspecified): 2% and -0.39.
`Cc1cc(C)c2c(N)c(-c3nc(-c4ccsc4)no3)sc2n1`: the “% Inhibition” value was -24% and the Z score was found to be 3.22.
Turning to `Cc1n[nH]c(C)c1-c1c(-c2ccccc2)ncn1C1CC(C)(C)NC(C)(C)C1`, the “% Inhibition” value turned out to be 3% and the Z score is -0.45.
The corresponding values for `Cn1c(=O)nc(O)c2c1nc(Br)n2CC(=O)O.Cn1c(=O)nc(O)c2c1nc(N1CCCCC1)n2C[C@H](O)CN1CCCCC1` are -2% and 0.2.
`C=C(C)CNC(N)=NCc1cccc(C(=O)N2CCCC2)c1`: the “% Inhibition” value was 7% and the Z score is recorded as -1.14.
The matching figures for `CCCS(=O)(=O)N1CCC(F)(C(=O)N2CCCC2)CC1`: -3% and 0.45.
The corresponding values for `COc1ccc(NC(=O)[C@]2(C)Oc3cccnc3NC2=O)cc1` are -4% and 0.74.
`CC(C)(C)c1nc(Cn2ccc(-c3cccc(-c4ncccn4)c3)n2)no1`: the “% Inhibition” value was -14% and the Z score is listed as 1.3.
As for `N[C@H]1CC[C@H](Nc2ncc(Cl)cc2Cl)C1`, the “% Inhibition” value is on record as -1% and the Z score is reported as 0.12.
The matching figures for `O=C(CCNC(=O)C1CCCC1)NCc1ccccc1Cl`: -5% and 0.66.
For `O=C(Nc1nnc[nH]1)c1cc(S(=O)(=O)N2CCCCC2)ccc1Cl`, the “% Inhibition” value is given as 2% and the Z score is -0.3.
The matching figures for `COc1cccc(NC(=O)C(C#N)C(=O)CC2CCCO2)c1` (stereo unspecified): -19% and 1.75.
For the molecule `Cc1ccc(NC(=O)c2nnn(-c3ccc(C)c(C)c3)c2-c2cccnc2)c(C)c1`, the “% Inhibition” value is recorded as -9% and the Z score is listed as 0.8.
The corresponding values for `Cc1csc(C(NS(=O)(=O)CC2CCCS(=O)(=O)C2)C2CC2)n1` (stereo unspecified) are -5% and 1.06.
The matching figures for `O=C1N(CC2CCC2)CCC[C@@]12CCN(Cc1ccc(F)cc1F)C2`: -12% and 1.53.
`Cc1ccsc1C(=O)N1CC[S@+]([O-])C(C)(C)C1`: the “% Inhibition” value is -7% and the Z score is 0.87.
On to `CN(C[C@H]1CCCO1)S(=O)(=O)c1ccc(-c2cc(C(F)(F)F)[nH]n2)o1`, for which the “% Inhibition” value was -1% and the Z score was found to be 0.16.
Turning to `CC1CC1C(NCc1cn2cccnc2n1)c1ccc(Cl)cc1` (stereo unspecified), the “% Inhibition” value is on record as -8% and the Z score came to 0.77.
For `O=C(O)[C@H]1CN(C(=O)c2cccc(-c3ncc[nH]3)c2)C[C@@H]1c1cccnc1`, the “% Inhibition” value is recorded as -16% and the Z score is 1.48.
The corresponding values for `O=C(CCc1nc(-c2ccc(S(=O)(=O)N3CCOCC3)cc2)no1)NC1CCCC1` are -11% and 1.26.
The matching figures for `CCOc1ncccc1C(=O)NC1(C(=O)OC)CCS(=O)(=O)CC1`: -2% and 0.31.
With `COc1ccc(OCc2cc(C(=O)N3CCCCCCC3)n[nH]2)c(Cl)c1`, the “% Inhibition” value was 3% and the Z score is given as -0.4.
The corresponding values for `COCC(=O)Nc1cc(C(C)C)c(O)cc1C` are -8% and 1.06.
Consider `CC(=O)N1CCO[C@H](C(=O)Nc2cccc3ccsc23)C1`, for which the “% Inhibition” value amounted to 15% and the Z score was -1.86.
The corresponding values for `Cc1ccc(-c2noc(N3CCO[C@H](c4nc(C)cs4)C3)n2)cc1` are -9% and 1.45.
The matching figures for `CC1(C)C[C@H](N(Cc2ccccc2)C(=O)c2cc(N3CCOC3=O)ccc2F)C(C)(C)O1`: 1% and -0.13.
The corresponding values for `Cc1cc(Cc2nnc(COc3ccc(C(C)(C)C)cc3)o2)no1` are -8% and 1.42.
In the case of `CC(C)C(=O)Nc1cccnc1-c1ccc([C@H](C)N2CCOCC2)cc1`, the “% Inhibition” value was -16% and the Z score was found to be 3.24.
The corresponding values for `CN1CCN(S(=O)(=O)N2CCN(Cc3ccc(-n4cccn4)cc3)CC2)CC1` are 1% and -0.1.
The matching figures for `Cc1[nH]c2ccccc2c1C1C(CCNC(=O)c2ccc(Cl)cc2)C1(C)C` (stereo unspecified): -26% and 3.03.
In the case of `O=C(O)c1ccc(OCCN2CC[C@@H]3OCC[C@@H]3C2)c(Cl)c1`, the “% Inhibition” value came out at 8% and the Z score is -0.96.
The corresponding values for `CCc1c(C)nc(-c2cccc(C)c2)nc1N1CCN(C(=O)c2ccc(C)cc2)CC1` are -6% and 1.06.
The corresponding values for `COc1ccccc1N1CCN(C(=O)C[C@H](c2ccc(F)cc2)c2c[nH]c3ccccc23)CC1` are -4% and 0.7.
The corresponding values for `CC1CCN(C(=O)c2ccc(N3CCS(=O)(=O)C[C@@H](C)C3)nc2)CC1` are 3% and -0.39.
For the molecule `CC(=O)N[C@H]1C[C@H]2CN(Cc3cccn3C)CC(=O)N2C1`, the “% Inhibition” value is recorded as -13% and the Z score was determined as 1.18.
The matching figures for `COc1ccc(CN2CC[C@H]3[C@H](CCC(=O)N3CCc3cccc(F)c3)C2)c(OC)c1OC`: -4% and 0.53.
The matching figures for `Oc1ccc(Cl)c(CN2C[C@H]3CC[C@@H](C2)[C@H]3O)c1Cl`: -2% and 0.22.
`COc1ccc(OC)c(NC(=O)N2CC[C@H](N(CCCN3CCCC3)C(=O)C(C)C)C2)c1`: the “% Inhibition” value is on record as -2% and the Z score is recorded as 0.27.
With `O=C(Nc1ccsc1C(=O)N1CCCCC1)c1cnccn1`, the “% Inhibition” value is 37% and the Z score is given as -4.76.
The corresponding values for `Cc1ccc(-c2nc(-c3ccc(C(=O)N4CCCCC4)s3)no2)cc1` are -22% and 2.85.
The matching figures for `Cc1cc(C(=O)NCCCNc2cccc(F)c2)no1`: -1% and 0.1.
The matching figures for `CC(C)C(CNC(=O)N1CC(C(N)=O)O[C@H](C)C1)Cc1ccccc1` (stereo partly specified): 2% and -0.33.
`Cc1ccc(C)c(S(=O)(=O)Nc2cc(C(=O)O)cnc2N(C)C)c1`: the “% Inhibition” value came out at 4% and the Z score was -0.7.
The matching figures for `Cc1c(C(=O)OC[C@@]2(C)CCCO2)cnn1CC(C)C`: -8% and 1.
The matching figures for `COc1ccccc1C(=O)N1CCN(c2cc(N(C)C)nc(C)n2)CC1`: -4% and 0.61.
`COC(=O)c1ccc(CN2CCC3(CC2)C[C@@H]3C(=O)OC)nc1`: the “% Inhibition” value is -6% and the Z score worked out at 0.88.
As for `CC(C)C1NC2(C(=O)Nc3ccccc32)C2C(=O)N(c3ccc(Br)cc3)C(=O)C12` (stereo unspecified), the “% Inhibition” value is reported as -5% and the Z score is 0.47.
The corresponding values for `CCc1nc(C)c(CNS(=O)(=O)N2CCOCC2)s1` are -11% and 1.37.
Regarding `Cc1occc1C(=O)NC(C)C1CC2CCC1C2` (stereo unspecified), the “% Inhibition” value is listed as 4% and the Z score is on record as -0.52.
Take `Cc1ncsc1CN(Cc1ccccc1)C(=O)C[C@H](C)n1ccnc1`: the “% Inhibition” value was 2% and the Z score was -0.44.
Consider `Oc1cccc(-c2cn(Cc3scnc3-c3ccccc3)nn2)c1`, for which the “% Inhibition” value was -14% and the Z score was 1.93.
The matching figures for `Cc1nc(CNC(=O)c2cc(=O)[nH]c(C3CC3)n2)ccc1[C@H](C)O`: -11% and 2.25.
The corresponding values for `O=C(NC[C@H]1CCCO1)c1cccc2cc(O)ccc12` are -9% and 1.17.
The corresponding values for `CC(C)(C)CNC(=O)C(C)(C)NC(=O)Nc1nc2ccccn2n1` are -2% and 0.24.
For the molecule `Cn1nccc1[C@H](O)c1cc2n(n1)CCN(C1Cc3ccccc3C1)C2`, the “% Inhibition” value is recorded as 9% and the Z score is -1.19.
Take `OCc1ccc(-c2nccn2-c2ccc3ncsc3c2)o1`: the “% Inhibition” value was -3% and the Z score was determined as 0.55.
In the case of `C[C@H](NS(=O)(=O)CCCCC#N)C(=O)NC1CCCC1`, the “% Inhibition” value was -2% and the Z score was 0.33.
The corresponding values for `COc1cccc(CNC(=O)N[C@H]2CCN(c3ccc(F)cc3)C2=O)c1` are 3% and -0.38.
Regarding `CC(N[C@@H]1CCCC[C@H]1O)c1cc(Br)ccc1F` (stereo partly specified), the “% Inhibition” value is recorded as -2% and the Z score is recorded as 0.23.
Regarding `Fc1cccc(C2(c3nc([C@@H]4CCCO4)no3)CCC2)c1`, the “% Inhibition” value was -8% and the Z score is listed as 1.06.
On to `CC1=C(C)CN(C(=O)CN2CCCCC2=O)CC1`, for which the “% Inhibition” value was -16% and the Z score is 1.86.
Take `CCCn1c(C)nnc1COc1ccccc1-c1nccs1`: the “% Inhibition” value came out at 0% and the Z score worked out at 0.07.
Take `CN(C)C(=O)NCC(=O)N1CCC[C@](C)(C#N)C1`: the “% Inhibition” value is -11% and the Z score was 0.94.
In the case of `COc1ccc(CCN(CCc2nc(-c3ccc(C)cc3)no2)C(=O)COCc2ccccc2)cc1OC`, the “% Inhibition” value is reported as 0% and the Z score is given as -0.06.
`CN=C(NCCCOC[C@H]1CCCO1)NCc1ccc(N(C)C)cc1`: the “% Inhibition” value is listed as -13% and the Z score was 1.13.
The corresponding values for `CC(C)CCN1CC(=O)N(c2ccc(C(C)C)cc2)C2CS(=O)(=O)CC21` (stereo unspecified) are 4% and -0.6.
As for `C[C@@H](C(=O)N1CCCCC1)N(c1ccc2c(c1)OCCO2)S(C)(=O)=O`, the “% Inhibition” value is on record as -12% and the Z score is on record as 1.94.
The corresponding values for `CN([C@H]1CCc2ccccc21)S(=O)(=O)c1cccs1` are 2% and -0.24.
